# Results from PMC7324525.
# Protein sequences, listed by entry. Tags and fused reporters are not part of them. Lines headed by an entry give the natural chain unless they say otherwise; changes in a name come on top. Residues count along the entry.
# UniProt Q9ULV1, residues 37-537: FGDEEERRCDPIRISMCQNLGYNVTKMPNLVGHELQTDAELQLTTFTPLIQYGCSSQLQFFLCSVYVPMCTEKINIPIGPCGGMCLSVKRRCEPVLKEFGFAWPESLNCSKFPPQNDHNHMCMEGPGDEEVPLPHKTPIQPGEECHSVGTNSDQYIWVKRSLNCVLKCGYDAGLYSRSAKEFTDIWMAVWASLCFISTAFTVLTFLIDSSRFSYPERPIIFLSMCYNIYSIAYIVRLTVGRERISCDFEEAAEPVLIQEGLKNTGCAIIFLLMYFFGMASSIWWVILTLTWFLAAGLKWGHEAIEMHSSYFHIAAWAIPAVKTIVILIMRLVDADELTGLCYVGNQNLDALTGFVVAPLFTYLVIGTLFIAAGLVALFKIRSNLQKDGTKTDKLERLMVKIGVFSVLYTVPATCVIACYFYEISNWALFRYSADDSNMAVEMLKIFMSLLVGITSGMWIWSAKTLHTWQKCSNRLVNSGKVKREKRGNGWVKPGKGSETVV
# UniProt Q9EQD0, residues 27-585: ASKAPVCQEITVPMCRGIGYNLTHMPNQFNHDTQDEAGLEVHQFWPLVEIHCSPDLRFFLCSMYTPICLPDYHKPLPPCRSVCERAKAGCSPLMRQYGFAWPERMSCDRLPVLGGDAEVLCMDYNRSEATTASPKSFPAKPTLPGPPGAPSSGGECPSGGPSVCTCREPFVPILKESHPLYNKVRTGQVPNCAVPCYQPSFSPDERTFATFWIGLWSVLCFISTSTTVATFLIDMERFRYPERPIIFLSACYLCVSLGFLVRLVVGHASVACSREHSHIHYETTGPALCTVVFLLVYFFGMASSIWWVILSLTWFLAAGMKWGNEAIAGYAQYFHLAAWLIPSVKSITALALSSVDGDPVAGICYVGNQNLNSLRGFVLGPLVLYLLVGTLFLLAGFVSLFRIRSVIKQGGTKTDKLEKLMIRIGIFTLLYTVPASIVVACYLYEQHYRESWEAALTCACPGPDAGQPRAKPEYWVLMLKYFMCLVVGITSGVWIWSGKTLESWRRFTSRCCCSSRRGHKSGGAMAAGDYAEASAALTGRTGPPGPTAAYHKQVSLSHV
# UniProt Q61091, residues 28-685: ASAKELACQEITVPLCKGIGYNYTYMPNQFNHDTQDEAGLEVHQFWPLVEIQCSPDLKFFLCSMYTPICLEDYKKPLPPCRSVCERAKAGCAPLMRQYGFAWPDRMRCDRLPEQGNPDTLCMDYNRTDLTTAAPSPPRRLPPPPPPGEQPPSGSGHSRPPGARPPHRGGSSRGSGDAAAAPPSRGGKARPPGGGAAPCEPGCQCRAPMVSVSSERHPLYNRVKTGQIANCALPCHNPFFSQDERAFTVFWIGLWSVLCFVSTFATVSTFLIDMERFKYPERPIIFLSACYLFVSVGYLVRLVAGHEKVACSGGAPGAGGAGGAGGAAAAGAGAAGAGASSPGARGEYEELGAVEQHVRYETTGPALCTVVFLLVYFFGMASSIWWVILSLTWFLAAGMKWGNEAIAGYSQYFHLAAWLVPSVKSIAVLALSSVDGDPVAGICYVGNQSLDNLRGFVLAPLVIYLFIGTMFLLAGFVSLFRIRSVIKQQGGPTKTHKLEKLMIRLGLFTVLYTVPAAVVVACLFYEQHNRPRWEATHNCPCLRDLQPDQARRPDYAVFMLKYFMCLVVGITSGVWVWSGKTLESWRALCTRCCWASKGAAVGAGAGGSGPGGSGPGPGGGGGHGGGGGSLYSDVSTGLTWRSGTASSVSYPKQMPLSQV
# UniProt P56726, residues 33-793: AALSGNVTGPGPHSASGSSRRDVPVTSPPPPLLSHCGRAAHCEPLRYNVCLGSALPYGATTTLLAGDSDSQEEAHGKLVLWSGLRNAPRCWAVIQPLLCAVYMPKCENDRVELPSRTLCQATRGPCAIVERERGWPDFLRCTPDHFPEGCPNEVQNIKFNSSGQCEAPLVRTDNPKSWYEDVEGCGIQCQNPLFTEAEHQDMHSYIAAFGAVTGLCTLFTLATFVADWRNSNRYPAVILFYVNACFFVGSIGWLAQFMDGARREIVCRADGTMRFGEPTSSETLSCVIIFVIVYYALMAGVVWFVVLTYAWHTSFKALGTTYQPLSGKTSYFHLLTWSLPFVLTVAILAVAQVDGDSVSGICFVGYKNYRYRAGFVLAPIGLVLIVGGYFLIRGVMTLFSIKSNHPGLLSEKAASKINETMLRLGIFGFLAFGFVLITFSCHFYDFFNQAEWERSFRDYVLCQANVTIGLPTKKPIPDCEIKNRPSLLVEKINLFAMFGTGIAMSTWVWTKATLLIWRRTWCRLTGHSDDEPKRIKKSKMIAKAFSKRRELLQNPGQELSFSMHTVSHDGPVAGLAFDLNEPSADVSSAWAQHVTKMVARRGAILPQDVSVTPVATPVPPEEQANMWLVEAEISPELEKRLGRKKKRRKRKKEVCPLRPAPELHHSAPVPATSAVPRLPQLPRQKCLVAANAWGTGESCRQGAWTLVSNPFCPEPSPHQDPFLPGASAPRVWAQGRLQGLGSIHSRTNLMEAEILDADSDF
# UniProt P27467, residues 19-352: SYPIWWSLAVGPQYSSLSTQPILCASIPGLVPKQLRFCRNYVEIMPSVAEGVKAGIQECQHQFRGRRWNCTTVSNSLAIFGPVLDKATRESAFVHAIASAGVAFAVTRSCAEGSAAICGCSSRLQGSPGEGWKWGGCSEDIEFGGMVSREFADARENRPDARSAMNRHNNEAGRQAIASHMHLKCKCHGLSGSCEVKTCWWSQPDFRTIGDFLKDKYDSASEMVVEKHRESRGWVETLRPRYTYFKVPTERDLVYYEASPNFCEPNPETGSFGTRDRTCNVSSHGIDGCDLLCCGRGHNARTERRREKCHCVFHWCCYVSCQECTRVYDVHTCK
# Results are given in words; binding and its absence hold for the method and conditions named. For some of these results: Binding seen in cells or lysates may run through a third protein. Some binding calls cover weakened binding; strength is not graded here. For some of these results: Where a sequence is shown, tags or fusion partners need not be part of it.
# Assays:
# Nluc-FZD4 (human) = Nluc-FZD4 (human) (UniProt Q9ULV1); test: FRET or BRET; NanoBRET association kinetics; L-cell-derived eGFP-Wnt-3a conditioned medium (serum-containing) added to living ΔFZD1–10 HEK293 cells expressing Nluc-FZD4; 37 °C, 180 min
# [1] = target: T1, mouse FZD4-mCherry (transient, ΔFZD1–10 GFP-free HEK293 cells) (mouse) (UniProt Q61088); test: confocal laser scanning microscopy of fluorescent ligand on live cells; living ΔFZD1–10 GFP-free HEK293 cells transiently transfected with mouse FZD-mCherry, incubated 1 h with eGFP-Wnt-3a L-cell conditioned medium; relative binding approximated by visual inspection
# T1 sequence: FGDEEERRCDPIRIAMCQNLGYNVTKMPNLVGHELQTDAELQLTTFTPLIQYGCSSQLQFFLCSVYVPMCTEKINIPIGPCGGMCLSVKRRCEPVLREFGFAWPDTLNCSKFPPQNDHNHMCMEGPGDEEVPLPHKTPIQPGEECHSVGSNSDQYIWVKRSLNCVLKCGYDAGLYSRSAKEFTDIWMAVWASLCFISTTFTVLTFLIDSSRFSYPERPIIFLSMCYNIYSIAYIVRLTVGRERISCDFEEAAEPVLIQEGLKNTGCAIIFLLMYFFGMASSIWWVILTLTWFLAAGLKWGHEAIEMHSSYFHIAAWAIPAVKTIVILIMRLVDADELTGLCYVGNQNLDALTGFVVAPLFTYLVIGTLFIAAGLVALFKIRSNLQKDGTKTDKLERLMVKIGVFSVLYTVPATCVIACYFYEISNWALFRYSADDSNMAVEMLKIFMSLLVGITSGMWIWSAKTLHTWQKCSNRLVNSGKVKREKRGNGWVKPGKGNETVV
# [2] = target: mouse FZD5-mCherry (transient, ΔFZD1–10 GFP-free HEK293 cells) (mouse) (UniProt Q9EQD0); test: as above
# [3] = target: mouse FZD8-mCherry (transient, ΔFZD1–10 GFP-free HEK293 cells) (mouse) (UniProt Q61091); test: as above
# [4] = target: T2, mouse FZD9-mCherry (transient, ΔFZD1–10 GFP-free HEK293 cells) (mouse) (UniProt Q9R216); test: as above
# T2 sequence: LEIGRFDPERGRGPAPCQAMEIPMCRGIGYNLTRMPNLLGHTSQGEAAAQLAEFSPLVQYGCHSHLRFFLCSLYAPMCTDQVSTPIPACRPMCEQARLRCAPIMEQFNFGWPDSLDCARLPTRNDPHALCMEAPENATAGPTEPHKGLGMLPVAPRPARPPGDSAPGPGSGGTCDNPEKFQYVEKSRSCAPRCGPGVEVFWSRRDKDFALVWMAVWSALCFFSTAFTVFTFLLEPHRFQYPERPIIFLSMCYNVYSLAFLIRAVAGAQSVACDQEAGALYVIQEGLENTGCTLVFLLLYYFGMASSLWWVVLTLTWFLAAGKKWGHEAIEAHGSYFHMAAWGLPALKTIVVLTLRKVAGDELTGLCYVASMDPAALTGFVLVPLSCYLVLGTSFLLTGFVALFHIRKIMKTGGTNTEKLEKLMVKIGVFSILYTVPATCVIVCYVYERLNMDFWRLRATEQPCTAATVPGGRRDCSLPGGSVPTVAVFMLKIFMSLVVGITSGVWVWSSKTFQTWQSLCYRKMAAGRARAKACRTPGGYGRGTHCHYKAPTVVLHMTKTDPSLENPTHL
# [5] = target: T3, mouse FZD4-mCherry (stable NCI-H1703 cell line) (mouse) (UniProt Q61088); test: confocal laser scanning microscopy of fluorescent ligand on live cells; living NCI-H1703 cells with stable mouse FZD-mCherry, incubated 3 h with eGFP-Wnt-3a L-cell conditioned medium; membrane eGFP against mCherry fluorescence, relative binding approximated by visual inspection
# T3 sequence: T1 sequence
# [6] = target: mouse FZD8-mCherry (stable NCI-H1703 cell line) (mouse) (UniProt Q61091); test: as above
# [7] = target: T4, mouse FZD9-mCherry (stable NCI-H1703 cell line) (mouse) (UniProt Q9R216); test: as above
# T4 sequence: T2 sequence
# Nluc-FZD6 = target: T5, Nluc-FZD6 (UniProt O60353); test: FRET or BRET; NanoBRET; eGFP-Wnt-3a conditioned medium against control medium on living ΔFZD1–10 HEK293 cells expressing Nluc-FZD6 or Nluc-SMO (Fig. S4c); preparation of the medium not stated
# T5 sequence: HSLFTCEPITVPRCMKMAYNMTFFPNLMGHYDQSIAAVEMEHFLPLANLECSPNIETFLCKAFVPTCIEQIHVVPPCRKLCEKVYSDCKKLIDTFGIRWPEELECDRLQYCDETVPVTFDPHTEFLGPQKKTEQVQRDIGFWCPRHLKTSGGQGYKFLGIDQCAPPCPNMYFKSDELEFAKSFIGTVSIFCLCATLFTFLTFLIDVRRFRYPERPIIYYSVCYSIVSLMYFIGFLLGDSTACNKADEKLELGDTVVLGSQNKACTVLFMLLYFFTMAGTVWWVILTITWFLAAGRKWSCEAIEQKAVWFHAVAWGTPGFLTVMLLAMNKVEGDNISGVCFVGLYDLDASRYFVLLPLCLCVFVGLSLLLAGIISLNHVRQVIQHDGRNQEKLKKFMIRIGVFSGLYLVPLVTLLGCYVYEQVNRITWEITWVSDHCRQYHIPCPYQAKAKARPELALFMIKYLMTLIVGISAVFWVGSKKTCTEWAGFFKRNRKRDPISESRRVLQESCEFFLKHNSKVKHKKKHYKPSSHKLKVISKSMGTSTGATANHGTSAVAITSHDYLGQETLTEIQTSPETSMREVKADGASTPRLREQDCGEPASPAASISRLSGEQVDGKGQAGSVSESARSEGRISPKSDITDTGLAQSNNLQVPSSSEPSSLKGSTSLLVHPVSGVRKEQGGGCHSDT
# [8] = target: Nluc-SMO (coding for mouse Smoothened) (mouse) (UniProt P56726); test: as above
Substance,binding (Nluc-FZD4 (human)),binding [1],binding [2],binding [3],binding [4],binding [5],binding [6],binding [7],binding (Nluc-FZD6),binding [8]
eGFP-Wnt-3a (conditioned medium from the stable L-cell line) (from UniProt P27467 19-352) (ligand),binds,binds,binds,binds,binds weakly,binds,binds,binds weakly,–,–
"eGFP-Wnt-3a (conditioned medium, preparation not stated) (from UniProt P27467 19-352) (ligand)",–,–,–,–,–,–,–,–,no binding,no binding
